Assay results taken from the supplement of paper PMC4967469.
By IC50 is meant the dose at which the fit gives 50% viability; a limit (>, <) means that the fit lies beyond the doses tested. The AUC spans the tested range (256-fold, ending at the top dose) of the same fit; it is 1 without any effect and falls as sensitivity rises. For part of these data: An inferred top dose is not printed in the source and was worked back from the curve model. For part of these data: Where an entry number is given, a second screen of the drug exists; the two often differ.

Legend:
Test in all cases: Viability of human cancer cell lines after 72 h of drug (GDSC screen)
[1] = compound: C=CCc1cccc(/C=N/NC(=O)CN2CCN(Cc3ccccc3)CC2)c1O [PAC-1]; details: top dose 2.56 µM
Method: (§1)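 Human cancer cell lines in 384-well plates, medium with 10% serum, drug for 72 h over a 256-fold dose range (nine 2-fold or five 4-fold steps up to the top dose). Adherent lines were fixed and stained with the nucleic acid dye Syto60, suspension lines read with resazurin; signal relative to control wells, capped at 0 and 100%. One two-parameter sigmoid per drug and line, fitted in a mixed model over all curves with the slope shared within a line.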

[2] = compound: COc1cc2ncn(-c3cc(OCc4ccccc4S(C)(=O)=O)c(C#N)s3)c2cc1OC [KIN001-135]; details: top dose 5 µM; top dose inferred
Method: as §1

[3] = compound: NC(=O)[C@@H](CCC(F)(F)F)N(Cc1ccc(-c2ncon2)cc1F)S(=O)(=O)c1ccc(Cl)cc1 [BMS-708163]; details: top dose 5 µM; screen: GDSC drug entry 1072; top dose inferred
Method: as §1

Cell Line | AUC [1] | IC50 [1] [µM] | AUC [2] | IC50 [2] [µM] | AUC [3] | IC50 [3] [µM]
CCRF-CEM (lymphoblastic leukaemia, suspension) | 0.717 | 0.582 | 0.991 | > 5 | 0.964 | > 5
HL-60 (acute myeloid leukaemia, suspension) | 0.98 | > 2.56 | 0.99 | > 5 | 0.988 | > 5
K-562 (chronic myeloid leukaemia, suspension) |  |  | 0.983 | > 5 |  | 
LOXIMVI (melanoma, semi-adherent) | 0.909 | > 2.56 | 0.987 | > 5 | 0.985 | > 5
MOLT-4 (lymphoblastic leukaemia, suspension) | 0.856 | 1.48 | 0.992 | > 5 | 0.991 | > 5
OVCAR-4 (ovary, adherent) | 0.835 | > 2.56 | 0.908 | > 5 | 0.957 | > 5
RPMI-8226 (myeloma, suspension) | 0.945 | > 2.56 | 0.969 | > 5 | 0.99 | > 5
RXF393 (kidney, adherent) | 0.931 | > 2.56 | 0.978 | > 5 | 0.895 | > 5
SBC-5 (small cell lung carcinoma, adherent) | 0.993 | > 2.56 |  |  | 0.932 | > 5
SCC90 (head and neck, adherent) | 0.928 | > 2.56 |  |  | 0.959 | > 5
SCC-4 (head and neck, adherent) | 0.971 | > 2.56 |  |  | 0.913 | > 5
SCC-9 (head and neck, adherent) | 0.979 | > 2.56 |  |  | 0.94 | > 5
SCC-15 (head and neck, adherent) | 0.972 | > 2.56 | 0.98 | > 5 | 0.834 | 4.98
SCC-25 (head and neck, adherent) | 0.941 | > 2.56 |  |  | 0.909 | > 5
SF295 (glioma, adherent) | 0.915 | > 2.56 |  |  | 0.984 | > 5
SF539 (glioma, adherent) | 0.969 | > 2.56 | 0.981 | > 5 | 0.989 | > 5
SJRH30 (rhabdomyosarcoma, adherent) | 0.868 | 2.47 |  |  | 0.985 | > 5
SK-CO-1 (large intestine, adherent) | 0.985 | > 2.56 |  |  | 0.882 | 4.78
SK-HEP-1 (liver, adherent) | 0.987 | > 2.56 |  |  | 0.949 | > 5
SK-LU-1 (lung adenocarcinoma, adherent) | 0.947 | > 2.56 |  |  | 0.917 | > 5
SK-MEL-3 (melanoma, adherent) | 0.873 | > 2.56 |  |  | 0.974 | > 5
SK-MEL-24 (melanoma, adherent) | 0.982 | > 2.56 |  |  | 0.968 | > 5
SK-MEL-28 (melanoma, adherent) | 0.927 | > 2.56 |  |  | 0.984 | > 5

Cell Line | AUC [1] | IC50 [1] [µM] | AUC [2] | IC50 [2] [µM] | AUC [3] | IC50 [3] [µM]
SK-MEL-30 (melanoma, adherent) | 0.925 | > 2.56 |  |  | 0.982 | > 5
SK-MES-1 (lung squamous cell carcinoma, adherent) | 0.968 | > 2.56 |  |  | 0.933 | > 5
SK-N-AS (neuroblastoma, adherent) | 0.978 | > 2.56 |  |  | 0.98 | > 5
SK-N-SH (neuroblastoma, adherent) | 0.91 | > 2.56 |  |  | 0.963 | > 5
SK-OV-3 (ovary, adherent) | 0.789 | 1.46 |  |  | 0.981 | > 5
SKG-IIIa (cervix, adherent) | 0.979 | > 2.56 |  |  | 0.979 | > 5
SKN (uterus, adherent) | 0.974 | > 2.56 |  |  | 0.982 | > 5
SKN-3 (head and neck, adherent) | 0.983 | > 2.56 |  |  | 0.945 | > 5
SN12C (kidney, adherent) | 0.984 | > 2.56 |  |  | 0.971 | > 5
SNB75 (glioma, adherent) | 0.942 | > 2.56 | 0.979 | > 5 | 0.974 | > 5
SNG-M (endometrium, adherent) | 0.824 | 1.48 |  |  | 0.947 | > 5
SNU-182 (liver, adherent) | 0.946 | > 2.56 |  |  | 0.978 | > 5
SNU-387 (liver, adherent) | 0.97 | > 2.56 |  |  | 0.984 | > 5
SNU-398 (liver, adherent) | 0.973 | > 2.56 |  |  | 0.949 | > 5
SNU-423 (liver, adherent) | 0.882 | > 2.56 |  |  | 0.967 | > 5
SNU-449 (liver, adherent) | 0.838 | 1.96 |  |  | 0.986 | > 5
STS-0421 (soft tissue, adherent) | 0.967 | > 2.56 |  |  | 0.914 | > 5
SU8686 (pancreas, adherent) | 0.882 | > 2.56 |  |  | 0.985 | > 5
SU-DHL-5 (B-cell lymphoma, suspension) | 0.686 | 0.458 |  |  | 0.971 | > 5
SUIT-2 (pancreas, adherent) | 0.8 | 1.31 |  |  | 0.977 | > 5
SW13 (adrenal gland, adherent) | 0.987 | > 2.56 |  |  | 0.988 | > 5
SW156 (kidney, adherent) | 0.938 | > 2.56 |  |  | 0.981 | > 5
